Reference: PubChem BioAssay AID1159614 (National Center for Advancing Translational Sciences (NCATS), 2016)
Screen size: about 45,000 compounds; about 65 (0.1%) were called active. The call rests on the fitted dose curve; in most records, active means well fitted activation curve with a large enough effect; inconclusive means small, poorly fitted or top-dose-only effect; inactive means no such curve, though single readings can be large or run the other way. The list shows a part of the results.

Biological target: Galactocerebrosidase (Homo sapiens) (UniProt P54803)
Chain of UniProt P54803 (P54803 whole entry, looked up): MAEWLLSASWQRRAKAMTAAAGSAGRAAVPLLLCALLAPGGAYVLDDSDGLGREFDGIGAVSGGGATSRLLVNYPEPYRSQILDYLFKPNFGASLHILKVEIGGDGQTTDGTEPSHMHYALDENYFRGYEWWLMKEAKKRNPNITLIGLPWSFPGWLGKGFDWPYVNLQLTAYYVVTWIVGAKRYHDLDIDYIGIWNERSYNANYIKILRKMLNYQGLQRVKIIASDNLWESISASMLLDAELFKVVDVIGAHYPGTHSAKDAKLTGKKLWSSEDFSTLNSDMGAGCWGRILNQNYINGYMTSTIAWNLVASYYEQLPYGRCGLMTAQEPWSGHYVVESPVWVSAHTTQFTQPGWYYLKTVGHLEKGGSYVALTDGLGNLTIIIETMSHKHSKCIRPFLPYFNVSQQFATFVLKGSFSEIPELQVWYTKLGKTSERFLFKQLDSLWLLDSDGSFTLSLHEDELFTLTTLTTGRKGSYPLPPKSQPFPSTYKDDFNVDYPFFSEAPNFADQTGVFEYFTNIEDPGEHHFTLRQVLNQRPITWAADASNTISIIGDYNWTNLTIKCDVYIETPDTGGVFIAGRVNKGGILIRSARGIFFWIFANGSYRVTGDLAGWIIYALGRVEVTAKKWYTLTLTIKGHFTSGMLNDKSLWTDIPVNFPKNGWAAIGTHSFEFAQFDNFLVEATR
Assay: A Novel Cell-Based Assay to Identify Small Molecules for B -Galactocerebrosidase; further: 0% is about no effect; nearly all actives have a fitted effect of over 65% in size
Conditions: 145M-Twi-hGALC-G270D cells (Twitcher mouse brain line with human GALC G270D), HMU-beta-Gal fluorescence, 48 h; series mostly up to 57.5 µM; activation: at the top concentration
Summary of the method: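 Mutant human GALC (G270D), stably expressed in a Twitcher mouse brain cell line lacking endogenous GALC, is measured in live-treated cells via 6-hexadecanoylamino-4-methylumbelliferyl-β-galactoside hydrolysis (0.1 mM final, pH 5.2) with fluorescent detection.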

activation, inactive:
CCOc1ccc(NC(=O)N2CCC(CN3CCCCCC3)CC2)cc1 -14.7%
Cc1cccc(N2CCN(C(=O)c3ccc4c(c3)c(C)c(C)n4C)CC2)c1C -8.66%
Cc1cc(C)cc(NC(=O)CSc2oc(-c3ccco3)nc2S(=O)(=O)c2ccccc2)c1 -9.66%
O=C(Nc1ccccc1OCc1cc(=O)n2ccccc2n1)c1cccc(Br)c1 -10.6%
CN(C(=O)CSc1nnc(-c2ccc([N+](=O)[O-])cc2)o1)C1CCCCC1 -14%
Cc1ccc(CN2CCSc3ccc(C(=O)Nc4cc(C)cc(C)c4)cc32)cc1 -16.1%
Cc1ccc(CCNC(=O)CCCn2c(=O)c3ccccc3n(CC(=O)Nc3cc(Cl)ccc3C)c2=O)cc1 -13%
CC(=O)N1CCc2c(sc3nc(SCC(N)=O)n(-c4ccc(F)c(Cl)c4)c(=O)c23)C1 -11.2%
COc1ccc(-c2nc3scc(CCNS(=O)(=O)c4cc(F)ccc4OC)n3n2)cc1OC -17.6%
COc1ccc(CCNC(=O)Cn2c(=O)cc(C(F)(F)F)c3c(C)nn(C)c32)cc1OC -0.768%
Clc1ccc(Nc2c(-c3cccs3)nc3ccc(Cl)cn23)cc1 16.1%
COc1ccccc1NC(=O)C1=C(C)Nc2nc(SCc3ccccc3F)nn2C1c1cccnc1 (configuration not stated) -13.3%
O=C(O)c1ccccc1O -10.1%
Cc1ccc(Cl)cc1NC(=O)c1sc2nc(-c3ccccc3)cn2c1C -7.84%
CCc1cccc(NC(=O)c2cc3c(=O)[nH]c4ccccc4c3n2C)c1 -7.53%
COc1ccc(CN(C)S(=O)(=O)c2nnc(NC(=O)C(C)C)s2)cc1OC -16.4%
CC(=O)c1cccc(NC(=O)CSc2nnc3ccc(-c4ccc(Cl)cc4)nn23)c1 -14.1%
CCOC(=O)c1sc2nc(C)n(CC(=O)Nc3cccc(Cl)c3)c(=O)c2c1C -0.0229%
Cc1ccc(C)c(CSC2=NC(C)(C)Nc3ccccc32)c1 -7.78%
CC(C)CN(CC(C)C)c1nc(-c2ccc(Cl)cc2)nc2ccccc12 -11%
C=CCc1c(C)nc2nc(SCC(=O)Nc3cccc(Cl)c3)nn2c1C -9.09%
COc1ccc(Cl)cc1NC(=O)Cn1c(=O)n(Cc2nc(C)no2)c(=O)c2ccccc21 0.111%
CCc1ccc(NC(=O)c2ccc3c(=O)n4nc(Nc5ccccc5C)sc4nc3c2)cc1 -13.1%
O=C(NCCCN1CCN(c2ccc(F)cc2)CC1)C1COc2ccccc2C1 (configuration not stated) -6.89%
O=C(CCS(=O)(=O)c1ccccc1)N(Cc1cccnc1)c1nc2c(Cl)cccc2s1 -22.6%
O=C(Nc1ccccc1C(=O)OCc1cc(=O)n2c3c(sc2n1)CCCC3)c1ccccc1 -20.3%
CO/N=C(/C(=O)N[C@@H]1C(=O)N2C(C(=O)O)=C(Cn3nnc(C)n3)CS[C@H]12)c1csc(N)n1 -2.85%
CCOC(=O)c1c(C)oc2nc(C)nc(N(CC(C)C)CC(C)C)c12 -24.1%
Cc1c(Cl)cccc1NC(=O)c1ccc2c(c1)nnn2C1CCCC1 6.77%
COc1ccc(C(=O)Nc2ccc(NC(=O)c3cccs3)cc2)cc1OC -10.4%
COc1ccccc1CCNC(=O)C(=O)NCC(c1ccco1)S(=O)(=O)c1cccs1 (configuration not stated) -12.2%
Cc1cccc(C(=O)NCC(c2cccs2)S(=O)(=O)c2cccs2)c1 (configuration not stated) -12%
CN(C)c1ccc(CN(Cc2ccco2)C(=O)COc2ccc(F)cc2)cc1 -16.2%
Cc1ccc(NC(=O)N2CC3CCCN3c3ccccc32)cc1C (configuration not stated) 0.322%
CCOc1ccc(C(=O)c2cn(CC(=O)Nc3ccc(OC)cc3)c3cc4c(cc3c2=O)OCO4)cc1 -24.3%
O=C(NCC(c1ccc2c(c1)OCO2)N1CCN(c2ccccc2)CC1)C(=O)Nc1ccc(F)cc1 (configuration not stated) -26.4%
CC1CCN(S(=O)(=O)c2ccc3c(c2)CCN3C(=O)Nc2cccc(Br)c2)CC1 -10.8%
Cc1ccc(-c2nc3n(n2)C(c2ccccc2Cl)C=C(c2ccc(Cl)cc2)N3)cc1 (configuration not stated) -7.57%
Cc1ccc(S(=O)(=O)NC2(C(F)(F)F)NC(=O)N(c3ccc(F)cc3)C2=O)cc1 (configuration not stated) 4.32%
CCOCCc1nn2c(=O)cc(COC(=O)c3ccccc3NC(=O)c3ccccc3F)nc2s1 -8.8%
CCOC(=O)c1ccc(CN(Cc2ccc(C)cc2)S(=O)(=O)c2ccc(F)c(C(=O)Nc3ccc(C)c(F)c3)c2)cc1 -4.06%
N#Cc1c[nH]n2c(NC3CCCC3)c(-c3cccc(Br)c3)nc12 -14.9%
COC(=O)c1sccc1S(=O)(=O)N(CC(=O)NCc1ccc(C)cc1)c1ccccc1 -2.03%
CCOC(=O)c1c(C)[nH]c(C)c1S(=O)(=O)N1CCCC(C(=O)Nc2ncccc2C)C1 (configuration not stated) -11.4%
Cc1oc(-c2ccc(C(=O)NCCC(C)C)cc2)nc1CS(=O)(=O)c1ccccc1 -10.2%
CCS(=O)(=O)N1CC(=O)N(c2cccc(Cl)c2)C(C)(C(=O)NC2CCCCCC2)C1 (configuration not stated) -0.943%
CC(C)CCn1c(=O)c2cccnc2n(CC(=O)Nc2ccccc2)c1=O 3.43%
CCCC(=O)N1CCc2cc(OC)c(OC)cc2C1COc1ccccc1OC (configuration not stated) -23.4%
CCc1ccc(CNc2ncc(-c3cccc(OC)c3)n2C)cc1 -41.3%
CCOCCCn1c(=N)c(C(=O)NC(C)c2ccccc2)cc2c(=O)n3cc(C)ccc3nc21 (configuration not stated) -7.52%
Cc1ccn2c(NC(=O)c3cccc(Cl)c3)c(-c3ccccc3)nc2c1 3.77%
CCc1cccc(CC)c1NC(=O)CN(CC(=O)O)CC(=O)O -7.49%
CCOC(=O)Cc1cc(C(=O)Nc2ccc(Br)cc2)sc1-c1ccc(C)cc1 -14.8%
Cc1cccc(C)c1NC(=O)Cn1c(=O)n(Cc2ccc(C(=O)NCc3ccco3)cc2)c(=O)c2sccc21 4.8%
Cc1c(C(=O)N(Cc2ccc(N(C)C)cc2)CC2CCCO2)oc2ccccc12 (configuration not stated) 1.63%
Cc1ccc2c(Sc3ccc(Cl)cc3)c(C(=O)NCCC(C)C)[nH]c2c1 -26.9%
Cc1cccc(N2CCN(C(=O)c3ccc4nc(N5CCC(C)CC5)sc4c3)CC2)c1C -22.3%
Cc1nc2sc(C)c(C)n2c(=O)c1S(=O)(=O)N1CCN(c2ccccc2F)CC1 -14.5%
Cc1cc(C)cc(OCC(=O)Nc2nonc2-c2ccc(Br)cc2)c1 -7.21%
COc1ccc2[nH]cc(CCNC(=O)Nc3ccccc3)c2c1 -4.31%
Cc1ccc(NC(=O)CN2C(=O)c3cccnc3Sc3ccccc32)cc1C -17.5%
COc1ccc(CN(C(=O)c2ccccc2F)C2CCS(=O)(=O)C2)cc1 (configuration not stated) -27.1%
